The campaign covered roughly 390,000 compounds. About 2,200 (0.56%) were called active. The inconclusive results got no clear call from the source; some entries with a clear call stand among them for comparison. The call rests on the fitted dose curve; in most records, active means well fitted inhibition curve with a large enough effect; inconclusive means small, poorly fitted or top-dose-only effect; inactive means no such curve, though single readings can be large or run the other way. Potencies of inconclusive entries are doubtful fits and often do not repeat.
The compounds below were run against Chromobox protein homolog 1 (Homo sapiens) (UniProt P83916) (assay: HTS for Inhibitors of HP1-beta Chromodomain Interactions with Methylated Histone Tails). Details: AlphaScreen HP1-beta / biotin-H3K9me3 peptide binding; series mostly up to 114 µM; activity change, negative = inhibition: at the top concentration.
In short: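 AlphaScreen: HP1-beta (50 nM) preformed 30 min with biotin-H3(1-18)K9me3 peptide (50 nM) in PBS pH 7.4, 0.01% Tween-20. Compound added for 30 min at RT, then streptavidin donor/nickel chelate acceptor beads (10 ug/mL) for 30 min.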
Further: nearly all actives have a fitted effect of over 70% in size.
Potency means the concentration at half of the fitted maximal effect; tags describe the fitted curve by direction and shape.

Sequence of UniProt P83916 (P83916 whole entry, looked up): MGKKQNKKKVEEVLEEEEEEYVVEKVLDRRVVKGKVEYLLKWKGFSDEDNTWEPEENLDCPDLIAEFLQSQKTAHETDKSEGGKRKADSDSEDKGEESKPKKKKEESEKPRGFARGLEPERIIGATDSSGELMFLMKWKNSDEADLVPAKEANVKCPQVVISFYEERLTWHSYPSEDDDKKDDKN

SMILES	activity change, negative = inhibition	Potency
Cc1cccc2cc(C#N)c(NCCNC(=O)COc3ccccc3)nc12	inactive: 29.1%	
Cc1ccc(-n2c(C)cc(-c3csc(N)n3)c2C)cc1		inconclusive: 50.1 µM [inhibitor, partial curve]
O=C(CN1CCCC1)NC(c1ccccc1)c1ccccc1		inconclusive: 56.2 µM [inhibitor, partial curve, poor fit]
Cc1csc(NC(=O)CSc2nc3sc(C)c(C)c3c(=O)[nH]2)n1		inconclusive: 8.91 µM [inhibitor, full curve]
CN1c2ccccc2C2(C)CCCC3=Cc4cc([N+](=O)[O-])cc([N+](=O)[O-])c4OC312 (centres undefined)		inconclusive: 22.4 µM [inhibitor, partial curve]
CCC(C)Nc1nc(N)c([N+](=O)[O-])c(Nc2cc(OC)ccc2OC)n1 (centres undefined)		inconclusive: 50.1 µM [inhibitor, partial curve]
COc1ccc(Nc2nc(C(=O)N3CCc4ccccc4C3)cs2)cc1		inconclusive: 35.5 µM [inhibitor, partial curve, poor fit]
Cc1cc(C)cc(Nc2ccc3nonc3c2[N+](=O)[O-])c1		inconclusive: 50.1 µM [inhibitor, partial curve]
Cc1ccc(S(=O)(=O)N2CC(O)C[C@H]2C(=O)OCC(=O)Nc2ccc(N3CCCCC3)cc2)cc1C (some centres undefined)		inconclusive: 50.1 µM [inhibitor, partial curve, poor fit]
C[n+]1ccccc1C1CCCC/C1=N\NC(N)=S (centres undefined)		inconclusive: 79.4 µM [inhibitor, single point]
O=C(O)c1ccccc1-c1ccc(/C=C/c2cc(C(F)(F)F)[nH]c(=O)n2)o1	inactive: 6.55%	
CC(C)[C@H](NS(=O)(=O)/C=C/c1ccccc1)C(=O)OCC(=O)NC(N)=O	inactive: 34.9%	
O=C(/C=C/c1cccc(OCc2ccccc2)c1)c1cccnc1	inactive: 35.4%	
COc1cccc(N=C2NC(=O)/C(=C/c3cc([N+](=O)[O-])ccc3O)S2)c1		inconclusive: 70.8 µM [inhibitor, partial curve]
Cc1cccc2c1c1ccc3c(c1n2C)C(=O)C=CC3=O		active: 6.31 µM
CC1CCCCN1C(=O)CNCC1CCCO1 (centres undefined)		inconclusive: 15.8 µM [inhibitor, full curve]
COc1cc(OC)c(C(=S)N2CCCC2)cc1OC		inconclusive: 8.91 µM [inhibitor, full curve, poor fit]
Cc1cccc(CN2CCN(C(=O)c3ccccc3F)CC2)c1		inconclusive: 7.08 µM [inhibitor, single point]
Clc1ccccc1OCCCCN1CCCC1		inconclusive: 79.4 µM [inhibitor, single point]
Cc1ccc(C(C)C)c(OCC#CCN2CCOCC2)c1		inconclusive: 20 µM [inhibitor, full curve]
NC(=O)[C@@H]1[C@@H]2C(=O)N(c3ccc(F)cc3)C(=O)[C@@H]2[C@H]2C=Cc3ccccc3N21		inconclusive: 70.8 µM [inhibitor, partial curve]
CC1CCN(C(=O)C2CCN(CC(C)c3ccccc3)CC2)CC1 (centres undefined)		inconclusive: 79.4 µM [inhibitor, partial curve, poor fit]
CO/N=C\CC(=O)Nc1ccc(F)cc1		inconclusive: 4.47 µM [inhibitor, partial curve, poor fit]

SMILES	activity change, negative = inhibition	Potency
C#CCOCCOCCOCCNc1nc(N2CCN(C(=O)CCCCCCCCCCNC(=O)[C@@H](CCSC)n3cc(CCO)nn3)CC2)nc(N2CCN(C(=O)CCCCCCCCCCNC(=O)[C@H]([C@@H](C)CC)n3cc(CCCCN=C(N)N)nn3)CC2)n1		inconclusive: 56.2 µM [inhibitor, partial curve, poor fit]
COc1ccc(Cl)c2sc(NC(=O)c3ccc(S(=O)(=O)N4CCOCC4)cc3)nc12	inactive: 20.2% [at 57 µM]	
Cc1ccc(NS(=O)(=O)c2cc([N+](=O)[O-])ccc2NNC(=S)Nc2cc(C)ccc2C)c(C)c1		inconclusive: 39.8 µM [inhibitor, partial curve, poor fit]
COc1cc(-c2nc3ccc(C)cn3c2Nc2ccc3c(c2)OCCO3)ccc1O		active: 50.1 µM
Cc1ccc(Nc2c(-c3c[nH]c4ccccc34)nc3ccccn23)cc1		inconclusive: 25.1 µM [inhibitor, single point]
Cc1cc(Cl)ccc1N=c1ssnc1Cl		active: 22.4 µM
CC(=O)N1CCN(CC(=O)Nc2ccc(C)c(F)c2)CC1		inconclusive: 15.8 µM [inhibitor, full curve]
COc1ccccc1N(CC(=O)N1CCN(c2ccccc2)CC1)S(=O)(=O)c1ccc(C)cc1		inconclusive: 56.2 µM [inhibitor, partial curve, poor fit]
Oc1ccc(O)c(Cc2nc3ccccc3[nH]2)c1		inconclusive: 2.51 µM [inhibitor, full curve, poor fit]
O=C(COc1ccc(Cl)cc1)NCc1nnc(SCC(=O)Nc2ccc3c(c2)OCCO3)o1		inconclusive: 39.8 µM [inhibitor, partial curve, poor fit]
CC(C)(C)c1ccc(C(=O)N/C(=C\c2ccco2)C(=O)Nc2ccccc2C(=O)O)cc1	inactive: -2.23%	
CCOc1ccccc1-n1c(C)cc(C=O)c1C	inactive: -1.85%	
CCN(CC)S(=O)(=O)c1ccc(N2CCOCC2)c(NC(=O)CC2OC(=O)c3ccccc32)c1 (centres undefined)	inactive: 36.9%	
COC(=O)c1ccccc1NC(=O)CN(c1ccc(C)cc1)S(C)(=O)=O	inactive: 30.6%	
Nc1cccc(S(=O)(=O)NC2=NCCC2)c1		inconclusive: 89.1 µM [inhibitor, single point]
COc1cccc(NC(=O)CN2C(=O)c3cccc4cccc2c34)c1	inactive: 44.1%	
CC(C)n1c(=O)[nH][nH]c1=S		active: 12.6 µM
CCOc1cc(C(=S)N2CCOCC2)ccc1O		inconclusive: 15.8 µM [inhibitor, full curve, poor fit]
CC(C)c1ccc(CN2CCC(C(=O)NCc3cccnc3)CC2)cc1		inconclusive: 17.8 µM [inhibitor, full curve]
CC1(C)Cc2c(sc3ncn4c(=S)[nH]nc4c23)CO1		inconclusive: 35.5 µM [inhibitor, partial curve]
CC(=O)OCCCNc1cc(Sc2ccc(C)cc2)c2nonc2c1[N+](=O)[O-]		inconclusive: 100 µM [inhibitor, single point]
N#Cc1ccccc1S(=O)(=O)N1CCN(CC(O)COc2ccccc2F)CC1 (centres undefined)		inconclusive: 50.1 µM [inhibitor, single point]
COc1ccccc1N1CCN(CCCOc2ccc(F)cc2)CC1		inconclusive: 35.5 µM [inhibitor, partial curve, poor fit]

SMILES	activity change, negative = inhibition	Potency
CCOc1ccc(CN2CCN(C(=O)c3ccccc3)CC2)cc1		inconclusive: 25.1 µM [inhibitor, partial curve, poor fit]
CCN(CC)c1ccc(NC2CC(=O)N(CCc3ccc(OC)cc3)C2=O)cc1 (centres undefined)		inconclusive: 39.8 µM [inhibitor, partial curve]
CCOC(=O)c1sc(N)c(C(=O)Nc2ccccc2)c1C		inconclusive: 12.6 µM [inhibitor, full curve, poor fit]
Cc1onc(-c2ccccc2)c1C(=O)NC(=S)NNC(=O)c1ccc(O)cc1O	inactive: -15.3%	
CC1CN(Cc2ccccc2)c2ccccc2NC1=S (centres undefined)		inconclusive: 56.2 µM [inhibitor, single point]
CCOC(=O)c1ccc(NC(=O)NCCc2ccccc2OC)cc1	inactive: 51.1%	
CC1(C)CC(CC(=O)NNc2nc(-c3ccccc3)cs2)C(=O)O1 (centres undefined)		inconclusive: 39.8 µM [inhibitor, single point]
CN1C(=O)/C(=C/c2ccco2)SC1=Nc1ccc(N2CCOCC2)cc1		inconclusive: 3.16 µM [inhibitor, full curve, poor fit]
CC(C)(C)c1ccc(O)c(N=Cc2cc(Br)ccc2O)c1		inconclusive: 70.8 µM [inhibitor, partial curve]
COc1ccccc1N1CCN(C/C(C)=C/c2ccccc2)CC1	inactive: 18.1%	
COc1ccc(OC)c(CNc2ccc(F)c(Cl)c2)c1	inactive: -3.99%	
Cc1ccc(N2CCN(c3nc4ccc(C)cc4n4nnnc34)CC2)c(C)c1	inactive: 80.4%	
O=C1OCC(c2ccccc2)=C1c1ccc(S(=O)(=O)N2CCOCC2)s1	inactive: 16.8%	
Cc1ccc(-c2cc(C(=O)N3CC(C)CC(C)C3)c3ccccc3n2)o1 (centres undefined)		inconclusive: 35.5 µM [inhibitor, partial curve, poor fit]
COc1ccc(-c2csc(Nc3ccccc3)[n+]2CC(O)c2ccc([N+](=O)[O-])cc2)cc1 (centres undefined)		inconclusive: 4.47 µM [inhibitor, full curve]
COc1cc(Cl)c(C)cc1NC(=O)CCc1nc2cccnc2n1-c1ccccc1	inactive: 9.08%	
CC(=O)c1cc(CN2CCN(CCC(C)C)C(CCO)C2)cs1 (centres undefined)	inactive: 0.464%	
CC1=C(C(=O)Nc2ccccc2)C(c2ccccc2)n2nc(-c3ccco3)nc2N1 (centres undefined)	inactive: 46.6%	
NC(=O)C1CCN(C(=O)COc2ccc3c(c2)oc(=O)c2ccccc23)CC1		inconclusive: 89.1 µM [inhibitor, single point]
Cn1c(=O)c2[nH]c(SCCN3CCCCC3)nc2n(C)c1=S	inactive: 5.47% [at 57 µM]	
CCNC(=S)N(CCc1c(C)[nH]c2ccc(C)cc12)Cc1cccnc1		inconclusive: 79.4 µM [inhibitor, single point]
CN(C)CCN(C(=O)/C=C/c1cccs1)c1nc2c(F)cc(F)cc2s1		inconclusive: 70.8 µM [inhibitor, partial curve]
CCOC(=O)C1CCN(Cc2cn[nH]c2-c2ccccc2)CC1		inconclusive: 79.4 µM [inhibitor, single point]

Source: PubChem BioAssay AID540317 (National Center for Advancing Translational Sciences (NCATS), 2011)
